# From PubChem BioAssay AID504332 (National Center for Advancing Translational Sciences (NCATS), 2011)
# Among all 350,000 compounds or so, about 31,000 (8.9%) were called active. This list was built around the results that the source calls inconclusive (neither active nor inactive); the mix of calls is not that of the screen. The call rests on the fitted dose curve; in most records, active means well fitted inhibition curve with a large enough effect; inconclusive means small, poorly fitted or top-dose-only effect; inactive means no such curve, though single readings can be large or run the other way. Where the call is inconclusive, the potency comes from a doubtful curve fit.
# Molecular target: Histone-lysine N-methyltransferase EHMT2 (Homo sapiens) (UniProt Q96KQ7)
# UniProt Q96KQ7, sequence (Q96KQ7 whole entry, looked up): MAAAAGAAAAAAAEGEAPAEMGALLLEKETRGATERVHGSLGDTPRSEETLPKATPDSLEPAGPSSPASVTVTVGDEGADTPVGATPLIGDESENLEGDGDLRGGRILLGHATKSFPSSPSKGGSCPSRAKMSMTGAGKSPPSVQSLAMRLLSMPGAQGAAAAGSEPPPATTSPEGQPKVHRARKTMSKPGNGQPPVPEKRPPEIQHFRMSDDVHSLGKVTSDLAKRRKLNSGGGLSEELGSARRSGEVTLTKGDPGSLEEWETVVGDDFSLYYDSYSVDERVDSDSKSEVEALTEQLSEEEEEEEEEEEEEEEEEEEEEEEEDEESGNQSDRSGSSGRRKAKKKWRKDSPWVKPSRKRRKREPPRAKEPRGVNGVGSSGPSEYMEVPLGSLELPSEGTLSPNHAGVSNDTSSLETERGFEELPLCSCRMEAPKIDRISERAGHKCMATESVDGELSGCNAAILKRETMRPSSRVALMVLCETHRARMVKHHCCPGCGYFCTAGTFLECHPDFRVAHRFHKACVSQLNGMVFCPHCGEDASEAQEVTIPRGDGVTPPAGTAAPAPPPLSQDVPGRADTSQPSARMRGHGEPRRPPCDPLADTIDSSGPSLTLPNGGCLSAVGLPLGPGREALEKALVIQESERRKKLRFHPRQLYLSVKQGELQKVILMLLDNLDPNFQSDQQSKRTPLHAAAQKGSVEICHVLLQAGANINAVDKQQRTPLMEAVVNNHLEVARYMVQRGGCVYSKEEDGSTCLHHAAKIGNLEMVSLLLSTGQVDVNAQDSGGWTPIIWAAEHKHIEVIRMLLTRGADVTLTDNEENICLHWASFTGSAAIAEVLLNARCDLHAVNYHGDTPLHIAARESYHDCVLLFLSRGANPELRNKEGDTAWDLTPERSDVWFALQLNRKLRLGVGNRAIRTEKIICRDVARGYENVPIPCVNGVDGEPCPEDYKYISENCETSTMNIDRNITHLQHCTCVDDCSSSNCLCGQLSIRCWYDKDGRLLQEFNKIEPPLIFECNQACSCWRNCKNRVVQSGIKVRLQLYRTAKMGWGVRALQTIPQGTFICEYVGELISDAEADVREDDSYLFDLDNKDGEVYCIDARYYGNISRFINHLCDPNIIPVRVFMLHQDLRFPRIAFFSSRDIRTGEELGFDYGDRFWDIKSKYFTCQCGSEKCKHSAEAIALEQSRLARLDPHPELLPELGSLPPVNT
# Assay: qHTS Assay for Inhibitors of Histone Lysine Methyltransferase G9a; further: nearly all actives have a fitted effect of over 75% in size
# Details: G9a H3K9 monomethylation, AlphaScreen, 2 h; activity, negative = inhibition: at 59 µM (top of the series) unless noted
# Method in brief: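 Chemiluminescent proximity detection of H3K9 monomethylation, read after 10 min bead incubation in the dark. Reaction: 20 nM G9a, 500 nM biotin-H3K9 peptide, 20 uM SAM cofactor, 2 h, room temperature, following 15 min enzyme-compound preincubation.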
# On the % scale 0 is the no-effect control and ±100 the full control effect; potency means the concentration at half of the fitted maximal effect; tags describe the fitted curve by direction and shape.
Structure (SMILES),Potency,"activity, negative = inhibition"
CN(C)/C=N/C(=S)Nc1ccc(Br)cc1F,"inconclusive: 25.1 µM [inhibitor, partial curve, poor fit]",–
CN1CCN(c2nc(-c3ccc(Cl)cc3Cl)nc3ccccc23)CC1,"inconclusive: 56.2 µM [inhibitor, single point]",–
Cc1cc(C2=NNC(=NC3CCCCC3)SC2)c(C)n1-c1c(C)n(C)n(-c2ccccc2)c1=O,inactive,–
CC(OC(=O)CCN=C1NS(=O)(=O)c2ccccc21)C(=O)NCc1ccccc1 (stereo not drawn),"inconclusive: 79.4 µM [inhibitor, partial curve, poor fit]",–
COc1ccc(CCC(=O)N2CCc3c([nH]c4ccccc34)C2c2ccc(F)cc2)cc1 (stereo not drawn),"inconclusive: 39.8 µM [inhibitor, single point]",–
CC[n+]1c(/C=C/c2ccc(N(C)C)cc2)ccc2ccccc21,active: 14.1 µM,–
CCC(CC)c1nnc(NS(=O)(=O)Cc2ccccc2)s1,active: 5.01 µM,–
COC(=O)C1C(c2ccccc2)NC(=O)NC1(O)C(F)(F)Cl (stereo not drawn),inactive,–
COc1cc(CN2CCN(c3cccc(C)c3C)CC2)cc(Br)c1O,"inconclusive: 15.8 µM [inhibitor, partial curve, poor fit]",–
Cc1c(/C=N\NC(=O)c2c[nH]c3ccccc23)cnn1C,"inconclusive: 89.1 µM [inhibitor, partial curve, poor fit]",–
CCC(=O)N1c2ccccc2CC1C(=O)NCc1ccc(OC(C)C)cc1 (stereo not drawn),inactive,–
Cc1cc(C(=O)NNc2ccccc2F)no1,active: 39.8 µM,–
O=[N+]([O-])c1ccc(OCCCCCN2CCOCC2)cc1,"inconclusive: 17.8 µM [inhibitor, partial curve, poor fit]",–
CCOC(=O)c1c(C)nc2c3ccccc3ccn12,inactive,–
O=C(OCC(=O)c1ccc(S(=O)(=O)N2CCCC2)cc1)C1=COCCO1,"inconclusive: 79.4 µM [inhibitor, single point]",–
CCOc1ccc(S(=O)(=O)N2CCCCC2)cc1NC(=O)C1=COCCO1,"inconclusive: 89.1 µM [inhibitor, single point]",–
CCOC(=O)CNC1CC(=O)N(c2ccc(Br)cc2)C1=O (stereo not drawn),active: 10 µM,–
Cc1nc2sc(C(N)=O)c(N)c2c2c1CCCC2,"inconclusive: 56.2 µM [inhibitor, partial curve, poor fit]",–
Cc1noc(C)c1COC(=O)CCOc1ccccc1,inactive,–
CCC(C)(C(=O)NC1CCCCC1)N(C)C(=O)c1ccccn1 (stereo not drawn),"inconclusive: 89.1 µM [inhibitor, single point]",–
CCOc1ccc(-c2nc(SCC(=O)Nc3ccc4c(c3)OCO4)c(-c3ccc(F)cc3)[nH]2)cc1,inactive,–
CCc1ccccc1NC(=O)c1ccc2c(c1)N(Cc1cccc(Cl)c1)C(=O)c1ccccc1S2(=O)=O,inactive,–

Structure (SMILES),Potency,"activity, negative = inhibition"
COc1ccc2c(c1)C(c1ccccc1C)CC(=O)O2 (stereo not drawn),"inconclusive: 31.6 µM [inhibitor, single point]",–
O=C(/C=C/c1ccc(S(=O)(=O)N2CCOCC2)cc1)OCC(=O)c1ccc([N+](=O)[O-])cc1,–,inconclusive: -60.4% [inhibitor]
Cc1cccc(CCNC(=O)c2sc3nc4n(c(=O)c3c2C)CCCC4)c1,"inconclusive: 1.58 µM [inhibitor, partial curve, poor fit]",–
CC1(C)Cc2c(cnn2-c2ccccc2)C(=O)/C1=N\NC(=O)c1ccccc1N,"inconclusive: 89.1 µM [inhibitor, single point]",–
Cc1nc(SCC(=O)OCc2ccccc2)c(C#N)c(-c2ccccc2)c1C(=O)Nc1ccccc1,"inconclusive: 25.1 µM [inhibitor, single point]",–
Cc1csc(=O)n1CC(=O)OCC(=O)NCc1ccccc1,"inconclusive: 39.8 µM [inhibitor, partial curve, poor fit]",–
O=C(C[n+]1cccc(CNC(=O)c2ccc(OC(F)F)cc2)c1)Nc1ccc(SC(F)F)cc1,"inconclusive: 25.1 µM [inhibitor, single point]",–
CCc1cc2c(SCC(=O)c3ccc(C)cc3)ncnc2s1,inactive,–
Cc1c(-c2nsc(NC(=O)c3ccccc3)n2)nnn1-c1ccc(C(F)(F)F)c(Cl)c1,inactive,–
Cc1ccc(S(=O)(=O)N2CCOCC2)cc1C(=O)OCC(=O)Nc1ccc2[nH]c(=O)[nH]c2c1,"inconclusive: 50.1 µM [inhibitor, partial curve]",–
CN1C(=O)c2ccccc2Sc2ccc(NC(=O)c3ccccc3F)cc21,inactive,–
O=C1c2oc3ccccc3c(=O)c2C(c2ccccc2)N1Cc1ccc2c(c1)OCO2 (stereo not drawn),"inconclusive: 3.55 µM [inhibitor, partial curve, poor fit]",–
O=C1NC(=O)/C(=C\c2ccc(OCc3cnc(Cl)s3)cc2)S1,"inconclusive: 44.7 µM [inhibitor, partial curve, poor fit]",–
O=C(Cn1c(C(=O)NCc2ccco2)cc2sccc21)c1ccccc1,–,inconclusive: -69.3% [inhibitor]
COc1ccc(NC(=S)NCc2ccc(F)cc2)cc1,–,inactive: -2.31% [at 2.33 µM]
O=S(=O)(Nc1cccc(-n2cnnn2)c1)c1ccc(F)cc1,"inconclusive: 70.8 µM [inhibitor, partial curve, poor fit]",–
O=C1CCCN1CCC1CCN(C2CC(=O)N(Cc3ccc(N4CCCC4=O)cc3)C2=O)CC1 (stereo not drawn),"inconclusive: 20 µM [inhibitor, single point]",–
COc1cccc2c(=O)c(C(=O)NCc3cccs3)c[nH]c12,"inconclusive: 6.31 µM [inhibitor, single point]",–
O=C(Nc1ccc(-c2cn3ccccc3n2)cc1)c1cccs1,"inconclusive: 39.8 µM [inhibitor, full curve]",–
CN1C(=O)/C(=C/c2ccc(OCc3ccc(C(=O)O)cc3)c(Cl)c2)NC1=S,"inconclusive: 79.4 µM [inhibitor, partial curve, poor fit]",–
Cc1ccc(NC(=O)CN2C(=O)NC3(CCCc4ccccc43)C2=O)c(C)c1 (stereo not drawn),"inconclusive: 50.1 µM [inhibitor, partial curve, poor fit]",–
